# Data taken from US20230250147A1 (Sanofi, published 2023).
# B1: GLP-1RA/FGF21 Fc fusion protein SEQ ID NO: 44 (Fc fusion)
# chain: HGEGTFTSDLSIQLDEEAVRLFIEWLEATGPVSGAPPPSGGGGGGGSGGGGSGGGGSA[… human IgG1 Fc with changes …]GGGSGSAHPIPDSSPLLQFGGQVRQRYLYTDDACQTEAHLEIREDGTVGGAADQSPESLLQLKALKPGVIQILGVKTSRFLCQRPDGALYGSLHFDPEACSFRELLLEDGYNVYQSEAHGLPLHLPGCKSPHRDPAPRGPARFLPLPGLPPAPPEPPGILAPQPPDVGSSDPLSMVGSQGRSPSYAS
# B2: GLP-1RA/FGF21 Fc fusion protein SEQ ID NO: 57 (Fc fusion)
# chain: YGEGTFTSDKSQLLEKRLAHLFIEWLIAGGHSSGKPPPKGGGGGGGSGGGGSGGGGSA[… human IgG4 Fc with changes …]GGGSGSAHPIPDSSPLLQFGGQVRQRYLYTDDACQTEAHLEIREDGTVGGAADQSPESLLQLKALKPGVIQILGVKTSRFLCQRPDGALYGSLHFDPEACSFRELLLEDGYNVYQSEAHGLPLHLPGCKSPHRDPAPRGPARFLPLPGLPPAPPEPPGILAPQPPDVGSSDPLSMVGSQGRSPSYAS
# B3: GLP-1RA/FGF21 Fc fusion protein SEQ ID NO: 71 (Fc fusion)
# chain: FGEGTFTSDKSKQLEKRLVRLFIEWLIAGGHSSGKPPPKGGGGGGGSGGGGSGGGGSA[… human IgG4 Fc with changes …]GGGSGSAHPIPDSSPLLQFGGQVRQRYLYTDDACQTEAHLEIREDGTVGGAADQSPESLLQLKALKPGVIQILGVKTSRFLCQRPDGALYGSLHFDPEACSFRELLLEDGYNVYQSEAHGLPLHLPGCKSPHRDPAPRGPARFLPLPGLPPAPPEPPGILAPQPPDVGSSDPLSMVGSQGRSPSYAS
# B4: GLP-1RA/FGF21 Fc fusion protein SEQ ID NO: 209 (Fc fusion)
# chain: GHGEGTFTSDKSKQLEEEAVRLFIEWLKAGGPKKIRYSGGGGGGGSGGGGSGGGGSA[… human IgG4 Fc with changes …]GGGSGSAHPIPDSSPLLQFGGQVRQRYLYTDDACQTEAHLEIREDGTVGGAADQSPESLLQLKALKPGVIQILGVKTSRFLCQRPDGALYGSLHFDPEACSFRELLLEDGYNVYQSEAHGLPLHLCGNKSPHRDPAPRGPARFLPLPGLPPAPPEPPGILAPQPPDVGSSDPLSMVGSQGRSPSYAS
# B5: GLP-1RA/FGF21 Fc fusion protein SEQ ID NO: 3 (Fc fusion)
# chain: GHGEGTFTSDKSKQLEEEAVRLFIEWLKAGGPKKIRYSGGGGGGGSGGGGSGGGGSA[… human IgG4 Fc with changes …]GGGSGSAHPIPDSSPLLQFGGQVRQRYLYTDDACQTEAHLEIREDGTVGGAADQSPESLLQLKALKPGVIQILGVKTSRFLCQRPDGALYGSLHFDPEACSFRELLLEDGYNVYQSEAHGLPLHLPGCKSPHRDPAPRGPARFLPLPGLPPAPPEPPGILAPQPPDVGSSDPLSMVGSQGRSPSYAS
# B6: GLP-1RA/FGF21 Fc fusion protein SEQ ID NO: 83 (Fc fusion)
# chain: HGEGTFTSDKSKQLEKRLVRLFIEWLIAVGHSGKPPPKGGGGGGGSGGGGSGGGGSA[… human IgG4 Fc with changes …]GGGSGSAHPIPDSSPLLQFGGQVRQRYLYTDDACQTEAHLEIREDGTVGGAADQSPESLLQLKALKPGVIQILGVKTSRFLCQRPDGALYGSLHFDPEACSFRELLLEDGYNVYQSEAHGLPLHLPGCKSPHRDPAPRGPARFLPLPGLPPAPPEPPGILAPQPPDVGSSDPLSMVGSQGRSPSYAS
# B7: GLP-1RA/FGF21 Fc fusion protein SEQ ID NO: 5 (Fc fusion)
# chain: GHGEGTFTSDKSKQLEEEAVRLFIEWLKAGGPKKIRYSGGGGGGGSGGGGSGGGGSA[… human IgG4 Fc with changes …]GGGSGSAHPIPDSSPLLQFGGQVRQRYLYTDDACQTEAHLEIREDGTVGGAADQSPESLLQLKALKPGVIQILGVKTSRFLCQRPDGALYGSLHFDPEACSFRELLLEDGYNVYQSEAHGLPLHLPGCKSPHRDPAPRGPARFLPLPGLPPAPPEPPGILAPQPPDVGSSDPLSMVYPSQGRSPSYAS
# B8: GLP-1RA/FGF21 Fc fusion protein SEQ ID NO: 25 (Fc fusion)
# chain: HGEGTFTSDLSILLDEEAVRLFIEWLLATGPVSGAPPPSGGGGGGGSGGGGSGGGGSA[… human IgG4 Fc with changes …]GGGSGSAHPIPDSSPLLQFGGQVRQRYLYTDDACQTEAHLEIREDGTVGGAADQSPESLLQLKALKPGVIQILGVKTSRFLCQRPDGALYGSLHFDPEACSFRELLLEDGYNVYQSEAHGLPLHLCGNKSPHRDPAPRGPARFLPLPGLPPAPPEPPGILAPQPPDVGSSDPLSMVGSQGRSPSYAS
# B9: GLP-1RA/FGF21 Fc fusion protein SEQ ID NO: 28 (Fc fusion)
# chain: HGEGTFTSDLSILLDEEAVREFIEWLLATGPVSGAPPPSGGGGGGGSGGGGSGGGGSA[… human IgG4 Fc with changes …]GGGSGSAHPIPDSSPLLQFGGQVRQRYLYTDDACQTEAHLEIREDGTVGGAADQSPESLLQLKALKPGVIQILGVKTSRFLCQRPDGALYGSLHFDPEACSFRELLLEDGYNVYQSEAHGLPLHLCGNKSPHRDPAPRGPARFLPLPGLPPAPPEPPGILAPQPPDVGSSDPLSMVGSQGRSPSYAS
# B10: GLP-1RA/FGF21 Fc fusion protein SEQ ID NO: 26 (Fc fusion)
# chain: HGEGTFTSDLSILLDEEAVRLFIEWLLATGPVSGAPPPSGGGGGGGSGGGGSGGGGSA[… human IgG4 Fc with changes …]GGGSGSAHPIPDSSPLLQFGGQVRQRYLYTDDACQTEAHLEIREDGTVGGAADQSPESLLQLKALKPGVIQILGVKTSRFLCQRPDGALYGSLHFDPEACSFRELLLEDGYNVYQSEAHGLPLHLPGCKSPHRDPAPRGPARFLPLPGLPPAPPEPPGILAPQPPDVGSSDPLSMVGSQGRSPSYAS
# B11: GLP-1RA/FGF21 Fc fusion protein SEQ ID NO: 229 (Fc fusion)
# chain: HGEGTFTSDKSKQLEKRLVRLFYEWLIAGGHSSGKPPPKGGGGGGGSGGGGSGGGGSA[… human IgG1 Fc with changes …]GGGSGSAHPIPDSSPLLQFGGQVRQRYLYTDDACQTEAHLEIREDGTVGGAADQSPESLLQLKALKPGVIQILGVKTSRFLCQRPDGALYGSLHFDPEACSFRELLLEDGYNVYQSEAHGLPLHLPGCKSPHRDPAPRGPARFLPLPGLPPAPPEPPGILAPQPPDVGSSDPLSMVYPSQGRSPSYAS
# B12: GLP-1RA/FGF21 Fc fusion protein SEQ ID NO: 207 (Fc fusion)
# chain: HGEGTFTSDLSKQLEKRLVRLFYEWLKNGGHSSGKPPPKGGGGGGGSGGGGSGGGGSA[… human IgG4 Fc with changes …]GGGSGSAHPIPDSSPLLQFGGQVRQRYLYTDDACQTEAHLEIREDGTVGGAADQSPESLLQLKALKPGVIQILGVKTSRFLCQRPDGALYGSLHFDPEACSFRELLLEDGYNVYQSEAHGLPLHLPGCKSPHRDPAPRGPARFLPLPGLPPAPPEPPGILAPQPPDVGSSDPLSMVGSQGRSPSYAS
# B13: GLP-1RA/FGF21 Fc fusion protein SEQ ID NO: 206 (Fc fusion)
# chain: HGEGTFTSDLSKQLEKRLVRLFYEWLLNGGHSSQKPPPKGGGGGGGSGGGGSGGGGSA[… human IgG4 Fc with changes …]GGGSGSAHPIPDSSPLLQFGGQVRQRYLYTDDACQTEAHLEIREDGTVGGAADQSPESLLQLKALKPGVIQILGVKTSRFLCQRPDGALYGSLHFDPEACSFRELLLEDGYNVYQSEAHGLPLHLPGCKSPHRDPAPRGPARFLPLPGLPPAPPEPPGILAPQPPDVGSSDPLSMVGSQGRSPSYAS
# B14: GLP-1RA/FGF21 Fc fusion protein SEQ ID NO: 211 (Fc fusion)
# chain: GHGEGTFTSDLSKQLEEEAVRLFIEWLKAGGPKKIRYSGGGGGGGSGGGGSGGGGSA[… human IgG4 Fc with changes …]GGGSGSAHPIPDSSPLLQFGGQVRQRYLYTDDACQTEAHLEIREDGTVGGAADQSPESLLQLKALKPGVIQILGVKTSRFLCQRPDGALYGSLHFDPEACSFRELLLEDGYNVYQSEAHGLPLHLPGCKSPHRDPAPRGPARFLPLPGLPPAPPEPPGILAPQPPDVGSSDPLSMVGSQGRSPSYAS
# B15: GLP-1RA/FGF21 Fc fusion protein SEQ ID NO: 212 (Fc fusion)
# chain: GHGEGTFTSDLSKQLEEEAVQLFIEWLKAGGPKKIRYSGGGGGGGSGGGGSGGGGSA[… human IgG4 Fc with changes …]GGGSGSAHPIPDSSPLLQFGGQVRQRYLYTDDACQTEAHLEIREDGTVGGAADQSPESLLQLKALKPGVIQILGVKTSRFLCQRPDGALYGSLHFDPEACSFRELLLEDGYNVYQSEAHGLPLHLPGCKSPHRDPAPRGPARFLPLPGLPPAPPEPPGILAPQPPDVGSSDPLSMVGSQGRSPSYAS
# B16: GLP-1RA/FGF21 Fc fusion protein SEQ ID NO: 27 (Fc fusion)
# chain: HGEGTFTSDLSILLDEEAVRLFIEWLLATGPVSGAPPPSGGGGGGGSGGGGSGGGGSA[… human IgG4 Fc with changes …]GGGSGSAHPIPDSSPLLQFGGQVRQRYLYTDDACQTEAHLEIREDGTVGGAADQSPESLLQLKALKPGVIQILGVKTSRFLCQRPDGALYGSLHFDPEACSFRELLLEDGYNVYQSEAHGLPLHLPGCKSPHRDPAPRGPARFLPLPGLPPAPPEPPGILAPQPPDVGSSDPLSMVYPSQGRSPSYAS
# B17: GLP-1RA/FGF21 Fc fusion protein SEQ ID NO: 208 (Fc fusion)
# chain: GHGEGTFTSDKSKQLEEEAVRLFIEWLKAGGPKKIRYSGGGGGGGSGGGGSGGGGSA[… human IgG4 Fc with changes …]GGGSGSAHPIPDSSPLLQFGGQVRQRYLYTDDACQTEAHLEIREDGTVGGAADQSPESLLQLKALKPGVIQILGVKTSRFLCQRPDGALYGSLHFDPEACSFRELLLEDGYNVYQSEAHGLPLHLCGNKSPHRDPAPRGPARFLPLPGLPPAPPEPPGILAPQPPDVGSSDPLSMVYPSQGRSPSYAS
# Target: T1, human FGFR1c together with human beta-Klotho (KLB) (human, UniProt P11362 22-822; Q86Z14 1-1044)
# Experiment: cell-based or functional assay
# T1 sequence (P11362 22-822, chain 1 of 2): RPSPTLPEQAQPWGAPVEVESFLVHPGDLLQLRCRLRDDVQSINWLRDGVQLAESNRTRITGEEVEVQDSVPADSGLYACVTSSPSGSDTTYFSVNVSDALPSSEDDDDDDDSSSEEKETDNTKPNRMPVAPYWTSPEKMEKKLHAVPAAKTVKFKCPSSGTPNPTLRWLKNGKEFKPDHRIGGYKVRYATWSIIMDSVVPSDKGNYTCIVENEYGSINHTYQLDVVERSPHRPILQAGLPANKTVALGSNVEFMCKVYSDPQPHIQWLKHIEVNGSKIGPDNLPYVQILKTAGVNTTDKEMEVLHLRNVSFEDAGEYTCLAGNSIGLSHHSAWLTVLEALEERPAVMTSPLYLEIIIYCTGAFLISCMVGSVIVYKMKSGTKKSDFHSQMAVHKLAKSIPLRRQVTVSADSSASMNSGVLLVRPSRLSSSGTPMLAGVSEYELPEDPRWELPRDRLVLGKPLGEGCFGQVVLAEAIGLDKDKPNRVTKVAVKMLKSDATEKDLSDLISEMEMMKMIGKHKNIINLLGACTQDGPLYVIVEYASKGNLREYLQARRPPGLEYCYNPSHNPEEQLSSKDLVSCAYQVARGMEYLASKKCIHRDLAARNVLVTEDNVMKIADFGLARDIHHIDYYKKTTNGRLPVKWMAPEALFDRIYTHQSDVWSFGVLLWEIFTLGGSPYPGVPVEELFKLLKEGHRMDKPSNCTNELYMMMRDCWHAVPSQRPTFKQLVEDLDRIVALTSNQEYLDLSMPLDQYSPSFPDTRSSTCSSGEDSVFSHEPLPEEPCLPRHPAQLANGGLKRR
# T1 sequence (Q86Z14 whole entry, chain 2 of 2, further chain): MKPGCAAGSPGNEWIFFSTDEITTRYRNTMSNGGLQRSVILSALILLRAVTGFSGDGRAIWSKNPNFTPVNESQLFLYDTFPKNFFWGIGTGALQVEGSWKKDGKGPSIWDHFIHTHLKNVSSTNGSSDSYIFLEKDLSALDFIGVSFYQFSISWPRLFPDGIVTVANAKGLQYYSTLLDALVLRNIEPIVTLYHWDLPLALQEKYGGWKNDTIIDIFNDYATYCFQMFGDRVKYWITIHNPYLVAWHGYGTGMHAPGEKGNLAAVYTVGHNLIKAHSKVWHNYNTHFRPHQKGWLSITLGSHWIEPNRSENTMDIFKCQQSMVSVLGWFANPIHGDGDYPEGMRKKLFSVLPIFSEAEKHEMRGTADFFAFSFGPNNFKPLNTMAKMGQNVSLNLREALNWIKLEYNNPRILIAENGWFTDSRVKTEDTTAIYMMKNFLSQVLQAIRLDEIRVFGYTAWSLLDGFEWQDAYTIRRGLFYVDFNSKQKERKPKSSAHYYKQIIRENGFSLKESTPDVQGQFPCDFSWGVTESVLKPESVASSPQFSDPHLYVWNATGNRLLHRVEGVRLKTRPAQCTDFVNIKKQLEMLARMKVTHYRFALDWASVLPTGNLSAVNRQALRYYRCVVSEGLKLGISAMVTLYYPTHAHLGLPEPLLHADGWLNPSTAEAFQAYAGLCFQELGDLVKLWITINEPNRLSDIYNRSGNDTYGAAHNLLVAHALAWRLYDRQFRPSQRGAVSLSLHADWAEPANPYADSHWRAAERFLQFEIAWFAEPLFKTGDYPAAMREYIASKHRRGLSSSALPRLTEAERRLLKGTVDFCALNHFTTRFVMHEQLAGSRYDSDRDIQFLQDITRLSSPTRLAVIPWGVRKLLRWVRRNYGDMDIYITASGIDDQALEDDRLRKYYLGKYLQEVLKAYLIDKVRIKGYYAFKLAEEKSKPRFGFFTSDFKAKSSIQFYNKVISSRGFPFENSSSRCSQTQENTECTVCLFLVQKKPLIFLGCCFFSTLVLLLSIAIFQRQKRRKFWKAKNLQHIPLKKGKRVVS
row,Binder,pFGFR ICW EC50 [nmol/L]
1,B1,30
2,B2,25.8
3,B3,13.6
4,B4,66.3
5,B5,22.7
6,B6,16.6
7,B7,20.4

# Target: T2, Mouse GLP-1R (mouse, UniProt O35659 22-463)
# T2 sequence (looked up): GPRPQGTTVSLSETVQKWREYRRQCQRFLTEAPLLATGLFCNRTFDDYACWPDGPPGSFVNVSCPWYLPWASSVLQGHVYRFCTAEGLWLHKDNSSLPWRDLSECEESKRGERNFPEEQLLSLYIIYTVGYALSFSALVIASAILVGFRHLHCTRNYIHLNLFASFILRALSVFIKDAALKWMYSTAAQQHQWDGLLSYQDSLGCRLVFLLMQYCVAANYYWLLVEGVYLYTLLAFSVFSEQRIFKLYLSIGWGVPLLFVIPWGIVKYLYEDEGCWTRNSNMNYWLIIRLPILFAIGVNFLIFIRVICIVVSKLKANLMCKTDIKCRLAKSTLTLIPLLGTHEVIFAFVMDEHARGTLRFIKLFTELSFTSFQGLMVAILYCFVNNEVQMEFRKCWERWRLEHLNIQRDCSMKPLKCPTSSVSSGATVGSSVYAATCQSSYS
# Experiment: cell-based or functional assay
row,Binder,HTRF cAMP EC50 [pmol/L]
1,B1,325
2,B8,101
3,B9,107
4,B10,95.3
5,B11,470
6,B2,19.3
7,B12,128
8,B13,93.7
9,B3,53.5
10,B4,118
11,B14,152
12,B15,287
13,B5,97.2
14,B16,91
15,B6,56
16,B7,96.5
17,B17,128

# Target: human glucagon-like peptide-1 (GLP-1) receptor (human, UniProt P43220 24-463)
# Experiment: cell-based or functional assay
row,Binder,HTRF cAMP EC50 [pmol/L]
1,B1,126
2,B8,45.9
3,B9,32.9
4,B10,40.1
5,B11,62.9
6,B2,21.1
7,B12,147
8,B13,107
9,B3,27.8
10,B4,164
11,B14,58.8
12,B15,113
13,B5,212
14,B16,37.5
15,B6,29.3
16,B7,125
17,B17,170

# Target: Monkey GLP-1R (monkey)
# Experiment: cell-based or functional assay
row,Binder,HTRF cAMP EC50 [pmol/L]
1,B1,174
2,B8,81.3
3,B9,68.7
4,B10,73.3
5,B11,82.1
6,B2,15.7
7,B12,189
8,B13,151
9,B3,26.6
10,B4,232
11,B14,68.5
12,B15,153
13,B5,279
14,B16,75.1
15,B6,28.1
16,B7,196
17,B17,255

# Target: T1, human FGFR1c together with human …
# Experiment: cell-based or functional assay
# Remark: another data set of the same source
row,Binder,pERK ICW EC50 [nmol/L]
1,B1,5.4
2,B2,6.86
3,B3,6.19
4,B4,27.9
5,B5,6.07
6,B6,2.44
7,B7,6.84
